In the supplement of paper PMC3334620:
Whole data set: some 33,000 sequences, median “E-score (-0.5 to 0.5)” near -0.016, cut for the highest 2% near 0.32. Some of the results follow.

These sequences were tested against T1, Stp1 (UniProt B3LFK1) (assay: PBM E-score (8-mer binding enrichment) (E-score (-0.5 to 0.5)); higher = stronger / more preferred TF binding; most listed sequences are background and not binding sites). Settings: protein concentration: 200 nM; construct: GST-full length.
T1 sequence: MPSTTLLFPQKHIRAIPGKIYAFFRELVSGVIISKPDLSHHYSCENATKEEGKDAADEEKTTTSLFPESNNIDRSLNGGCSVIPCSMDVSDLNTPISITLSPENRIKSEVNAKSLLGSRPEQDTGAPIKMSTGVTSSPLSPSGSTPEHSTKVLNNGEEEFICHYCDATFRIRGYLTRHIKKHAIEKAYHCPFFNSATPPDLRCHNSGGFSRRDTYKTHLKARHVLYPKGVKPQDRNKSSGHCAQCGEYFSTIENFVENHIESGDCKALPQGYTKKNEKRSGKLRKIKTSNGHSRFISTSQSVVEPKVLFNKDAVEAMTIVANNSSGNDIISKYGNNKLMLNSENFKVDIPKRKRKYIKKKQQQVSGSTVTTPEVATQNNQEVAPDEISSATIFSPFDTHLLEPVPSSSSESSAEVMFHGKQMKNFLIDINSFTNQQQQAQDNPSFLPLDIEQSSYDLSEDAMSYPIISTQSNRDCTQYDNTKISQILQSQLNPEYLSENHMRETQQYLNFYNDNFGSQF
In short: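 PURExpress in vitro transcription/translation supplied GST-tagged yeast transcription factors, either full-length or DNA-binding domain. Applied at about 100-200 nM to universal all-10-mer Agilent arrays double-stranded by primer extension, the bound protein was detected with fluorescent anti-GST. E-scores, modified Wilcoxon-Mann-Whitney statistics, were given by the Universal PBM Analysis Suite to ungapped eight-base words pooled with their reverse complements after masliner normalisation.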

Point of comparison: CCTCGGCC, “PBM E-score” value -0.0149. Against it:
- CAAAATAG — lower, -0.17
- AGCGACAG — lower, -0.153
- AGCATGGA — lower, -0.264
- CCGAGTAC — lower, -0.0745
- CCTATAAC — lower, -0.262
- GTACAATA — higher, 0.255
- TACGGCGA — higher, 0.473
- AGAGCATC — lower, -0.135
- GGCGGCGA — higher, 0.276
- AGTCAACA — lower, -0.0168
- CAGGGCAA — higher, 0.0617
- ATATATCG — higher, 0.261
- AAGTCGTA — lower, -0.0387
- CAGACCTC — lower, -0.0325
- ACTCCCTG — lower, -0.182
- GGGGGCAA — lower, -0.197
- ACAACAAT — higher, 0.0375
- ATGCAGTC — lower, -0.199
- GATCTCCC — lower, -0.204
- CTAACAGA — higher, 0.0905
- GGCGCTCA — higher, 0.281
- CACCCGAG — lower, -0.189
- ACTTGGCT — lower, -0.249
- AGCTATTC — lower, -0.193
- GGTGAAAA — higher, 0.201
- CGCAGAGA — lower, -0.0411
- AATAAATA — higher, 0.35
- AGCGACTC — lower, -0.263
- GTGGTGTA — higher, 0.0559
- GCTAGTCA — lower, -0.287
- AGGGCACC — higher, 0.0197
- CCCAAGAG — higher, 0.00717
- AGAAGCCG — higher, 0.221
- AGCTCCTG — lower, -0.105
- AATAAAGG — higher, 0.00104
- TGAGTTAA — higher, 0.0465
- ACGGGACA — lower, -0.072
- CAGATTTA — higher, 0.198
- AAGGCAAC — higher, 0.274
- CTATTCAG — lower, -0.0709
- AAGGTCGC — lower, -0.106
- ACAGATCT — lower, -0.0993
- ACCGCCTC — lower, -0.0359
- AAAGATAC — higher, 0.0737
- AGAGGGGC — lower, -0.145
- AATCACCC — lower, -0.109
- GCTGTAAC — lower, -0.11
- GCTTCCAC — lower, -0.0772
- AGTTGGCC — lower, -0.137
- ATGCCAGA — higher, 0.128
- CGGGCGCC — higher, 0.269
- GTGGTCCA — lower, -0.0379
- GTGCATAA — higher, 0.183
- ACCATGAA — higher, 0.00296
- ACCAAACT — higher, -0.0133
- ATATATCA — higher, 0.0668
- AATTGAGG — lower, -0.0437
- AAGATCCT — lower, -0.0555
- GCCCAAGA — lower, -0.117
- CAAATAAG — higher, 0.0433
- AGTAACTA — higher, 0.0847
- CGTTATAC — lower, -0.144
- ACACCCAC — lower, -0.269
- TAAGGGAA — lower, -0.0578
- CATCCGGC — lower, -0.133
- TTAAAGAA — higher, 0.109
- ATTAGATG — higher, 0.201
- CATTCAAC — higher, 0.103
- ACTTCAAC — higher, 0.0197
- AAAAACTA — higher, 0.142
- GAGACACA — lower, -0.0919
- ATACTCTA — higher, 0.141
- AACCCGTC — lower, -0.111
- GCAGTAAC — lower, -0.167
- GTCGCCGA — higher, 0.0933
- CAGTAATG — higher, 0.0578
- AGAACCGC — higher, 0.19
- AGACACTC — lower, -0.205
- CTTAGTCC — lower, -0.023
- TCACTAGA — higher, 0.055
- CGTGTGGA — higher, 0.016
- TACCGCTA — lower, -0.171
- TAGCCGAA — higher, 0.00682
- ATGAGCCA — lower, -0.0457
- CCCCACGC — lower, -0.244
- ATGATATC — lower, -0.0953
- CGCCGCTC — higher, 0.434
- AGGATTGC — lower, -0.169
- AAATCCCG — higher, 0.0278
- CAGACGGG — lower, -0.242
- GACAAATA — higher, 0.176
- AGGACTCG — lower, -0.247
- CAGGGATC — lower, -0.292
- ACCCGCAC — higher, 0.129
- TGATTGCA — higher, 0.153
- ACACAATC — lower, -0.0336
- CGAGAATC — higher, 0.0685
- ATCGACCA — lower, -0.264
- CGTCTAGC — higher, 0.00596
- AATAAGAC — lower, -0.112
- AAGCCCGA — lower, -0.0871
- GGATTAAC — higher, 0.0943
- CCCGCCTA — lower, -0.0356
- CTGGACCA — lower, -0.0691
- AAGAGATG — lower, -0.145
- AAGTTCGG — lower, -0.0699
- AAGGATGA — lower, -0.0513
- CATGCACG — higher, 0.133
- CACTATTC — higher, 0.0647
